Drawing on the supplement of paper PMC8183993, this text covers nuclei count for 72 compounds.

The structures appear in SMILES notation. “And” between values parts separate entries of the source, which are not always exact repeats. Equal entries are not always repeated. Structures can show the parent of a compound that is named as a salt. ± gives the standard deviation of the averaged measurements. Over roughly 3,200 compounds, “nuclei count (viability) relative to DMSO” has its median near 99; the lowest 2% begin near 16. The list shows a part of the results.

The test has as its system U2OS. As to the kind of experiment: nuclei count (viability) relative to DMSO (% of DMSO); higher = more viable cells. Conditions: 10 µM; 24 h. As for the experimental part: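 Primary image-based screen in U2OS cells: compounds at 10 uM for 24 h, then a 1 h o-propargyl-puromycin (OPP) pulse, click labelling, and high-throughput microscopy. Mean cytoplasmic OPP intensity and nuclei count were normalised to DMSO wells within each plate (DMSO = 100) and averaged over triplicate plates.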
The compound `CNC(=O)c1cc(Oc2ccc(NC(=O)Nc3ccc(Cl)c(C(F)(F)F)c3)c(F)c2)ccn1` [Regorafenib (BAY 73-4506)] displayed a nuclei count of 92.1.

`CN(C)CCN(C)C(=O)c1ccc(NC(=O)Nc2ccc(-c3nc(N4CCOCC4)c4ccn(CC(F)(F)F)c4n3)cc2)cc1` gave a nuclei count of 68.3.

In the case of `CCOC(=O)O[C@]1(C(=O)COC(=O)CC)CC[C@H]2[C@@H]3CCC4=CC(=O)C=C[C@]4(C)[C@H]3[C@@H](O)C[C@@]21C` [Prednicarbate], the nuclei count came out at 105.

With `O=C(Nc1ccccc1-c1cn2c(CN3CCNCC3)csc2n1)c1cnc2ccccc2n1`, the nuclei count was found to be 12.2.

Compound `COc1ccc2c(c1OC)C(=O)O[C@@H]2[C@H]1c2c(cc3c(c2OC)OCO3)CCN1C` [Noscapine hydrochloride] yielded a nuclei count of 95.6.

Turning to `CC(=O)NCCCS(=O)(=O)O` [Acamprosate calcium], the nuclei count amounted to 96.1.

For `O=C(O)c1cc(/N=N/c2ccc(O)c(C(=O)O)c2)ccc1O` [Olsalazine Sodium], the nuclei count came out at 98.2.

`O=C(CCc1ccc(O)cc1)c1c(O)cc(O)cc1O` [Phloretin (Dihydronaringenin)] yielded a nuclei count of 92.6.

In turn, `Cc1cn(CCN2CCN(c3ccccc3-c3cc(C#N)cc(C(=O)NCCCN4CCCC4)c3)CC2)c2ccccc12` displayed a nuclei count of 22.8.

For `CC(=O)C1=C(O)C=C2Oc3c(C(C)=O)c(O)c(C)c(O)c3[C@]2(C)C1=O` [Usnic acid], the nuclei count turned out to be 103.

Consider `CC[C@H](C)[C@H](N)C1=N[C@H](C(=O)N[C@@H](CC(C)C)C(=O)N[C@H](CCC(=O)O)C(=O)N[C@H](C(=O)N[C@H]2CCCCNC(=O)[C@H](CC(N)=O)NC(=O)[C@@H](CC(=O)O)NC(=O)[C@H](Cc3cnc[nH]3)NC(=O)[C@@H](Cc3ccccc3)NC(=O)[C@H]([C@@H](C)CC)NC(=O)[C@@H](CCCN)NC2=O)[C@@H](C)CC)CS1` [Bacitracin], for which the nuclei count was determined as 104.

In turn, `OC(CNCC(O)C1CCc2cc(F)ccc2O1)C1CCc2cc(F)ccc2O1` (configuration not stated) [Nebivolol hydrochloride] had a nuclei count of 102.

Regarding `OC(CNCC(O)C1CCc2cc(F)ccc2O1)C1CCc2cc(F)ccc2O1` (configuration not stated) [Nebivolol (Bystolic)], the nuclei count amounted to 98.9.

In turn, `O=C(NCc1ccccc1)c1csc(Nc2ccncn2)n1` [Thiazovivin] displayed a nuclei count of 97.7 ± 2.5.

As to `CC(C)NCC(O)COc1ccccc1-n1cccc1` (configuration not stated) [Isamoltane hemifumarate], the nuclei count was 103.

For the compound `CNC[C@H](O)c1ccc(O)c(O)c1` [Epinephrine bitartrate (Adrenalinium)], the nuclei count came to 110.

The compound `CN1CCN(CCCN2c3ccccc3Sc3ccc(C(F)(F)F)cc32)CC1` [Trifluoperazine dihydrochloride] returned a nuclei count of 101.

`CNCc1ccc(-c2cc(-c3nc(-c4ccc(S(=O)(=O)C(C)C)cc4)cnc3N)on2)cc1`: the nuclei count is 59.2.

Compound `CN(C)CCN1C(=O)c2ccccc2N(C)c2ccccc21` [Dibenzepine hydrochloride] displayed a nuclei count of 107.

In turn, `CC(S)C(=O)NCC(=O)O` (configuration not stated) [Tiopronin (Thiola)] came in with a nuclei count of 104.

`COc1ccc(OC)c(C(O)CNC(=O)CN)c1` (configuration not stated) [Midodrine hydrochloride]: the nuclei count amounted to 93.

Take `CN(C(=O)C(Cl)Cl)c1ccc(OC(=O)c2ccco2)cc1` [Diloxanide furoate]: the nuclei count amounted to 107.

With `CCc1cc(Nc2nccc(-c3c(-c4ccc(OC)c(C(=O)Nc5c(F)cccc5F)c4)nc4ccccn34)n2)c(OC)cc1N1CCC(N2CCN(S(C)(=O)=O)CC2)CC1`, the nuclei count came to 96.9 ± 8.5.

In turn, `OC(CCCN1CCN(c2ncc(F)cn2)CC1)c1ccc(F)cc1` (configuration not stated) displayed a nuclei count of 104.

Regarding `Nc1ccn([C@H]2CC[C@@H](CO)O2)c(=O)n1` [Zalcitabine], the nuclei count was determined as 97.9.

Take `C[C@@H](O)[C@H]1C(=O)N2C(C(=O)O)=C(S[C@@H]3CN[C@H](CNS(N)(=O)=O)C3)[C@H](C)[C@H]12` [Doripenem Hydrate]: the nuclei count was determined as 112.

As to `Oc1c(I)cc(Cl)c2cccnc12` [Clioquinol], the nuclei count amounted to 101.

Turning to `CC(C)(C#N)c1cc(Cn2cncn2)cc(C(C)(C)C#N)c1` [Anastrozole], the nuclei count is 112.

Regarding `COc1cc2nccc(Oc3ccc(NC(=O)Nc4cc(C)on4)c(Cl)c3)c2cc1OC` [Tivozanib (AV-951)], the nuclei count turned out to be 77.3.

As for `COC(=O)/C=C/c1cc(O)ccc1O` [Methyl 2,5-dihydroxycinnamate], the nuclei count was found to be 66.1.

In turn, `CN(C)CCOC(C)(c1ccccc1)c1ccccn1` (configuration not stated) [Doxylamine succinate] returned a nuclei count of 102.

Turning to `CNC(=O)c1cccc(-c2ccc3c(N4CCOC[C@@H]4C)nc(N4CCOC[C@@H]4C)nc3n2)c1`, the nuclei count was found to be 76.7 ± 0.85.

`C=CCNC(N)=S` [Allylthiourea]: the nuclei count is 103.

With `COc1cccc(-c2cc(=O)c3ccccc3o2)c1N`, the nuclei count is 96.5 and 107 and 98.2.

`CC(=O)c1ccc2c(c1)N(CCCN(C)C)c1ccccc1S2` [Acetopromazine maleate salt]: the nuclei count stood at 101.

Compound `Cc1cc(=O)[nH]c(=S)[nH]1` [Methylthiouracil] gave a nuclei count of 102.

For `CC(=O)[C@H]1CC[C@H]2[C@@H]3C=CC4=CC(=O)CC[C@@]4(C)[C@@H]3CC[C@]12C` [Dydrogesterone], the nuclei count amounted to 103.

Regarding `Cc1cc(I)ccc1Nc1c(C(=O)NOCC2CC2)cc(F)c(F)c1F`, the nuclei count is 103.

`O=C(O)c1ccc(N2C(=O)C(=Cc3ccccc3)SC2=S)cc1` came in with a nuclei count of 101.

The compound `CC[C@]1(O)C[C@H]2CN(CCc3c([nH]c4ccccc34)[C@@](C(=O)OC)(c3cc4c(cc3OC)N(C=O)[C@H]3[C@@](O)(C(=O)OC)[C@H](OC(C)=O)[C@]5(CC)C=CCN6CC[C@]43[C@@H]65)C2)C1` [Vincristine sulfate] displayed a nuclei count of 17.8.

In turn, `CC[C@]1(O)C[C@H]2CN(CCc3c([nH]c4ccccc34)[C@@](C(=O)OC)(c3cc4c(cc3OC)N(C=O)[C@H]3[C@@](O)(C(=O)OC)[C@H](OC(C)=O)[C@]5(CC)C=CCN6CC[C@]43[C@@H]65)C2)C1` [Vincristine] returned a nuclei count of 18.1.

On to `NC[C@@H]1O[C@H](O[C@H]2[C@@H](O)[C@H](O[C@@H]3[C@@H](O)[C@H](N)C[C@H](N)[C@H]3O[C@H]3O[C@H](CO)[C@@H](O)[C@H](O)[C@H]3N)O[C@@H]2CO)[C@H](N)[C@@H](O)[C@@H]1O` [Paromomycin sulfate], for which the nuclei count amounted to 104.

The compound `Nc1nc(CC(=O)Nc2ccc(CCNC[C@H](O)c3ccccc3)cc2)cs1` [Mirabegron (YM178)] gave a nuclei count of 102.

Turning to `COc1ccccc1OCC(O)CO` (configuration not stated) [Guaifenesin], the nuclei count turned out to be 90.1.

As for `Cc1cccc(C)c1OCC(C)N` (configuration not stated) [Mexiletine hydrochloride], the nuclei count amounted to 97.6 ± 3.

As for `COc1ccccc1N1CCN(CCCCN2C(=O)c3ccccc3C2=O)CC1` [NAN-190 hydrobromide], the nuclei count came to 107.

`CN1[C@@H]2CC[C@H]1C[C@@H](OC(=O)c1c[nH]c3ccccc13)C2` [Tropisetron hydrochloride] came in with a nuclei count of 107.

In turn, `CN1[C@@H]2CC[C@H]1C[C@@H](OC(=O)c1c[nH]c3ccccc13)C2` [Tropisetron HCl] registered a nuclei count of 89.9.

`CN[C@@H](C)C(=O)N[C@H]1CN(C(=O)CC(C)C)CC[C@H]2CC[C@@H](C(=O)NC(c3ccccc3)c3ccccc3)N2C1=O` came in with a nuclei count of 96.2.

`Oc1ccc(/C=C/c2cc(O)cc(O)c2)cc1` [Resveratrol] showed a nuclei count of 80.6 ± 3.9.

`CCOC(=O)C1=C(COCCN)NC(C)=C(C(=O)OC)C1c1ccccc1Cl` (configuration not stated) [Amlodipine] showed a nuclei count of 94 ± 3.4.

`CCOC(=O)C1=C(COCCN)NC(C)=C(C(=O)OC)C1c1ccccc1Cl` (configuration not stated) [Amlodipine besylate]: the nuclei count worked out at 81.4.

In turn, `CCN(CC)CCNC(=O)c1c(C)[nH]c(/C=C2\C(=O)Nc3ccc(F)cc32)c1C` [Sunitinib Malate (Sutent)] showed a nuclei count of 47.9.

Take `COc1ccc(/C=C/C(=O)Nc2ccccc2C(=O)O)cc1OC` [Tranilast]: the nuclei count is 101.2 ± 0.66.

`CCOc1cc2ncc(C#N)c(Nc3ccc(F)c(Cl)c3)c2cc1NC(=O)/C=C/CN(C)C` [Pelitinib (EKB-569)] returned a nuclei count of 79.9.

As to `Cc1c(N(C)C)c(=O)n(-c2ccccc2)n1C` [Amidopyrine], the nuclei count worked out at 101.

On to `Oc1c(Cl)cc(Cl)c(Cl)c1Cc1c(O)c(Cl)cc(Cl)c1Cl` [Hexachlorophene], for which the nuclei count worked out at 90.1 ± 5.1.

`C=C1C(=O)[C@]23[C@H](O)[C@H]1CC[C@H]2[C@@]12CO[C@]3(O)[C@@H](O)[C@@H]1C(C)(C)CC[C@@H]2O` [Oridonin (Isodonol)] gave a nuclei count of 36.

For `NC(=O)c1ccc2[nH]ccc2c1`, the nuclei count is 90.4.

Compound `O=C1c2c(O)cccc2C([C@@H]2O[C@H](CO)[C@@H](O)[C@H](O)[C@H]2O)c2cc(CO)cc(O)c21` (some centres not stated) [Aloin (Barbaloin)] registered a nuclei count of 96.5.

Turning to `CCCCc1cc2ccccc2c(OCCN(C)C)n1` [Dimethisoquin hydrochloride], the nuclei count amounted to 99.4.

As to `CC(C(=O)O)c1ccc2c(c1)[nH]c1ccc(Cl)cc12` (configuration not stated) [Carprofen], the nuclei count worked out at 107.

`C=CCc1cccc(/C=N/NC(=O)CN2CCN(Cc3ccccc3)CC2)c1O` displayed a nuclei count of 72.7.

`CC(NC(=O)C(Cc1ccccc1)NC(=O)OCc1ccccc1)C(=O)CF` (configuration not stated) displayed a nuclei count of 95.

Take `Cc1cccc(C)c1NC(=O)C(C)N` (configuration not stated) [Tocainide hydrochloride]: the nuclei count was 112.

For `CN(C)C(=O)C(CCN1CCC(O)(c2ccc(Cl)cc2)CC1)(c1ccccc1)c1ccccc1` [Loperamide hydrochloride], the nuclei count amounted to 101 ± 4.3.

`Cc1ccccc1C(=O)Nc1ccc(C(=O)N2CCCC(O)c3cc(Cl)ccc32)c(C)c1` (configuration not stated) had a nuclei count of 95.5.

Turning to `CC[N+](CC)(CC)CCOc1ccc(/C=C/c2ccccc2)cc1`, the nuclei count was 104.

Turning to `CC(C)c1cc2c(c(O)c1O)[C@@]13CCCC(C)(C)[C@@H]1C[C@@H]2OC3=O` [Carnosol], the nuclei count was determined as 88.

Compound `CC(=O)O[C@H]1CC[C@@]2(C)C(=CC[C@@H]3[C@@H]2CC[C@]2(C)C(c4cccnc4)=CC[C@@H]32)C1` [Abiraterone Acetate (CB7630)] displayed a nuclei count of 105.

The compound `Nc1nc2[nH]cnc2c(=S)[nH]1` [Thioguanine] had a nuclei count of 44.1.

In turn, `COc1ccccc1N1CCN(CCN2C(=O)c3ccccc3C(C)(C)C2=O)CC1` [ARC 239 dihydrochloride] showed a nuclei count of 103.
